Laboratory results as given in ChEMBL document CHEMBL1201862, “PubChem BioAssay data set” (2004).
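Step 1: Grow cells in 96-well plates. Step 2: Expose to compound for 48 hours at 5 concentrations. Step 3: Interpolate endpoints linearly; if unreached, use highest concentration. At the GI50, growth is halved.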 Active and inactive are the calls of the source. Cut-off read from the data, not from the text of the source: active = GI50 up to about 1.1 µM and inactive = higher.

test system: NCI-H322M; test: DTP human tumour cell line panel, 48 h

Compound	GI50
O=C1CC2(CCN(Cc3ccccc3)CC2)C(=O)N1N1CCCCC1	inactive: > 100 µM
CC(=O)O[C@H]1CCC2[C@@H]3CCC4=C(O)c5nocc5C[C@]4(C)C3CC[C@@]21C (some centres undefined)	inactive: > 100 µM
N#CCC(=O)c1cc(OCc2cc(OCc3ccc(Br)cc3)cc(OCc3ccc(Br)cc3)c2)cc(OCc2cc(OCc3ccc(Br)cc3)cc(OCc3ccc(Br)cc3)c2)c1	inactive: > 100 µM
Cn1c(=O)c2c(nc3n(Cc4ccccc4)c(=O)c(Br)cn23)n(C)c1=O	inactive: > 100 µM
CCOC(=O)NC(=O)c1cn(C2CCCCC2)c(=O)n(C)c1=O	inactive: > 100 µM
c1ccc(CN2COc3c(ccc4c5c(ccc34)CN(Cc3ccccc3)CO5)C2)cc1	inactive: > 100 µM
COc1ccc(C(C#N)NC23CC4CC(CC(C4)C2)C3)cc1OC (centres undefined)	inactive: > 100 µM
COc1ccc(C(=O)N/N=C/c2c(C)n(C)n(-c3ccccc3)c2=O)cc1	inactive: > 100 µM
COC1=CCC=C(C[C@@H]2NCCc3cc(OC)c(OC)cc32)C1	inactive: > 100 µM
O=C1OCC/C1=C/c1ccc(/N=N/c2c(O)ccc3ccccc23)cc1	inactive: 27 µM
c1cc(Sc2nc(Sc3ccncc3)nc(Sc3ccncc3)n2)ccn1	inactive: > 100 µM
CCN(CC)CC[n+]1ccc2c(C)c3[nH]c4ccc(O)cc4c3c(C)c2c1	inactive: 3.38 µM
CN(C)CCNC1=C(Cl)C(=O)c2c(O)ccc(O)c2C1=O	inactive: 2.35 µM
CCCCc1c2cnccc2c(CCCC)c2c1[nH]c1ccccc12	inactive: 15.3 µM
O=C(O)C(Br)C(Br)C(=O)O (centres undefined)	inactive: > 100 µM
COc1cc(/C=N\O[Si](C)(C)C(C)(C)C)ccc1O[Si](C)(C)C(C)(C)C	inactive: > 100 µM
C(=C\c1ccco1)/c1cccc(/C=C/c2ccco2)n1	inactive: > 50 µM
Cn1c(=O)c2c(nc(Cc3ccccc3)n2CC(=O)O)n(C)c1=O	inactive: > 100 µM
Oc1c(CN2CCOCC2)ccc(CN2CCOCC2)c1O	inactive: 30.2 µM
NC(Cc1ccccc1)C(=O)N[C@H]1c2ccsc2/C(=N/O)[C@H]1O (some centres undefined)	inactive: > 100 µM
C=CN1CCN(c2ccccc2)P1(=O)Oc1ccccc1 (centres undefined)	inactive: > 100 µM
CC(=O)c1ccc2c(c1)C(=O)c1sc(C(C)=O)cc1C2=O	inactive: 2.61 µM
Cn1c(=O)c2c3ccccc3n(C)c2n(C)c1=O	inactive: > 100 µM

Compound	GI50
O=C(C[n+]1ccccc1)N/N=C(\C(=O)NC1=C(Cl)C(=O)c2ccccc2C1=O)c1c(O)c2ccc(O)cc2oc1=O	inactive: 13.9 µM
Nc1nc2cc(CNc3ccc(C(=O)O)cc3)ccc2nc1-c1ccccc1	inactive: > 100 µM
CN(C)/C=C/c1ccnc2c1C(=O)c1ccccc1C2=O	inactive: 13.4 µM
COc1ccc(C2=NC(CO)[C@H](c3ccccc3)O2)cc1OC (some centres undefined)	inactive: > 100 µM
Cc1c(/N=N/c2ccccc2)c(-c2ccccc2)n(C2OC(CO)C(O)C(O)C2O)c(=S)c1C#N (centres undefined)	inactive: 5.16 µM
COc1cc(Br)c(CC2C3=C(CCN2C(=O)C2CCC2)CC(=O)CC3)cc1O (centres undefined)	inactive: 67.3 µM
COc1cc2ccc(CC#N)cc2cc1OC	inactive: > 100 µM
N#C/C(=C\c1ccc(F)cc1)c1nc2ccccc2c(=O)[nH]1	inactive: > 100 µM
N=C1/C(=C/c2ccco2)C(=O)N=C2SC=NN12	inactive: > 100 µM
CS(=O)(=O)c1ccc(-c2cc(-c3ccc(S(C)(=O)=O)cc3)[n+](-c3cc(-c4ccc(S(C)(=O)=O)cc4)c([O-])c(-c4ccc(S(C)(=O)=O)cc4)c3)c(-c3ccc(S(C)(=O)=O)cc3)c2)cc1	inactive: > 100 µM
CCCCCCCCCCCCCC/C(C(=O)OC)=C(/O)C(=O)OCC	inactive: > 100 µM
CO/C(=N\N=C\c1cccc(Cl)c1)c1ccncc1	inactive: > 10 µM
O=S(=O)(O)c1ccc2c(/N=N\c3cccc4ccccc34)c(O)c(S(=O)(=O)O)cc2c1	inactive: > 100 µM
C=CCOCn1cc(F)c(=O)[nH]c1=O	inactive: > 100 µM
O=C(NNc1ccnc2cc(Cl)ccc12)/C(=C\c1ccccc1Cl)NC(=O)c1ccccc1	inactive: > 100 µM
C[N+](C)(C)CC(=O)N/N=C(/Cc1nc2c3c(ccc2nc1O)C(=O)c1ccccc1C3=O)C(=O)Nc1ccc(Cl)c(Cl)c1	inactive: 49.4 µM
CN(C)CCn1c(=O)c2ccc(NCCCN(C)CCCNc3ccc4c(=O)n(CCN(C)C)c(=O)n5c6ccc([N+](=O)[O-])cc6c(=O)c3c45)c3c(=O)c4cc([N+](=O)[O-])ccc4n(c1=O)c23	active: < 0.01 µM
Cc1nn(CN2CCN(C)CC2)c(=S)n1/N=C/c1ccc(-c2ccc(Cl)cc2Cl)o1	inactive: > 100 µM
C/C=C(/C)C(=O)O[C@@H]1c2c(C)coc2C[C@H]2CC[C@H](O)[C@H](C)[C@]21C	inactive: > 100 µM
Cc1sc2nc(N(C)C)oc(=O)c2c1C	inactive: > 100 µM
c1ccc2c(c1)N=C(c1ccc3ccccc3c1)CC(c1cccc3ccccc13)S2 (centres undefined)	inactive: 65.6 µM
COc1cccc2c1[C@H](OC)[C@]13O[C@@]1(C2=O)[C@H](O)[C@H](C)[C@@](O)(C(=O)[C@@H]1O[C@H]1C)[C@@H]3O	active: 0.149 µM
CN(C)CCOC1(Cc2ccc(Cl)cc2Cl)CCC(C(C)(C)C)CC1 (centres undefined)	inactive: 1.87 µM

Compound	GI50
O=C(NCC(C(=O)OCc1ccccc1)C(=O)OCc1ccccc1)OCc1ccccc1	inactive: > 100 µM
CC1(C)CC(/C=C2/OC(=O)c3ccccc32)=C(C#N)C(=O)O1	inactive: > 100 µM
CC(C)=CCN1CC(C)C(=O)Nc2cc(Cl)ccc21 (centres undefined)	inactive: 25.9 µM
Cc1cnc(/N=c2\sc(C)cn2-c2ncc(C)s2)s1	inactive: > 100 µM
CN(C)c1ccc(C(=NNC(=O)c2cc3ccccc3[nH]2)c2ccc(N(C)C)cc2)cc1	active: 0.933 µM
O=C(CCn1ccnc1[N+](=O)[O-])NCCCn1ccnc1[N+](=O)[O-]	inactive: > 100 µM
O=[N+]([O-])c1cc(-[n+]2cc([O-])on2)ccc1F	inactive: 17.1 µM
Cc1ccc(S(=O)(=O)SCc2ccccc2)cc1	inactive: 41.3 µM
CCCCCCCCCC[S+]([O-])CC(CO)NC(=O)/C=C/c1c(C)nc(O)nc1O (centres undefined)	active: 0.195 µM
COC(=O)[C@H]1[C@H](C(=O)OC)[C@@H](C)c2c(ccc3c2[nH]c2ccccc23)[C@@H]1C	inactive: > 100 µM
Nn1c(-c2ccccc2Cl)nc2ccccc2c1=O	inactive: > 100 µM
COc1ccc(/C=C/C(=O)c2sc(N)nc2C)cc1	inactive: > 100 µM
Nn1c(Nc2ccc(S(=O)(=O)Nc3ncccn3)cc2)nnc(/C=C/c2c(O)ccc3ccccc23)c1=O	inactive: 38.9 µM
CCOC(=O)C1=C(c2ccccc2)NC(c2ccccc2)=C(C(=O)OCC)c2c1c(=O)cc[nH]c2=O	inactive: > 100 µM
O=C(NC1C(=O)NNC1c1cccc([N+](=O)[O-])c1)c1ccccc1 (centres undefined)	inactive: > 100 µM
C[C@]12CC[C@@H]3c4ccc(OP(=O)(O)O)cc4CC[C@H]3[C@@H]1CCC2=O	inactive: > 100 µM
O=C(O)CC(Cc1ccccc1)C(=O)O (centres undefined)	inactive: > 100 µM
Cc1cccc(/C=C2/C(=O)Nc3ccccc32)n1	inactive: 13.7 µM
C(=N\c1ccc(-c2nc3ccccc3s2)cc1)/c1ccco1	inactive: 89.7 µM
OCCCCCNc1c2ccccc2nc2ccccc12	inactive: 3.07 µM
COc1ccc(S(=O)(=O)Nc2ccc(-c3csc(N4C(=O)/C(=C/C=C\c5ccccc5)N=C4c4ccccc4)n3)cc2)cc1Cl	inactive: 41 µM
CCCCN(Cc1ccccc1)/C(=N/C#N)N(Cc1ccccc1)Cc1ccccc1	inactive: 32.1 µM
C/C(=N\NC(=S)NCCNC(=S)N/N=C(\C)c1ccccn1)c1ccccn1	inactive: 2.44 µM

Compound	GI50
Clc1ccccc1NN(Cc1ccccn1)c1ccccc1Cl	inactive: 22.4 µM
O=c1c(/C=C/c2c(O)ccc3ccccc23)nnc2sc(-c3cccc(Br)c3)nn12	inactive: 24.4 µM
COc1ccc2c(c1)CC[C@@H]1[C@@H]2CC[C@]2(C)/C(=N/OCCN3CCCC3)CC[C@@H]12	inactive: 2.66 µM
O=P(O)(Cc1ccccc1)c1ccccc1-c1ccccc1	inactive: > 100 µM
O=C(Cc1ccccc1)N/N=C(/c1nc2ccc([N+](=O)[O-])cc2nc1O)C(O)c1ccco1 (centres undefined)	inactive: > 100 µM
COc1ccc(OC)c(N2CC(N)C2=O)c1 (centres undefined)	inactive: > 100 µM
Cc1ccc(C)c(N2C(=O)C(=O)c3c(C)ccc(C)c32)c1	inactive: 28.4 µM
O=S(=O)(O)c1cc(S(=O)(=O)O)c2c(/N=N/c3ccccc3)c(O)ccc2c1	inactive: > 100 µM
CN(C)c1nnnn1-c1c(N)n(C)c(=O)n(C)c1=O	inactive: > 100 µM
COc1cc(C2c3cc4c(cc3OC(NNc3ccccc3)C2C)OCO4)cc(OC)c1OC (centres undefined)	inactive: 1.38 µM
COC(=O)CCC12CCC(=O)C1[C@@H](C(=O)OC)C[C@H]2C(=O)OC (some centres undefined)	inactive: > 100 µM
CC(C)OP(=O)(OC(C)C)/C(C#N)=C/c1ccco1	inactive: > 100 µM
Brc1ccc2c(-c3csc(-c4c[nH]c5ccccc45)n3)c[nH]c2c1	inactive: 16.7 µM
NS(=O)(=O)c1ccc(/N=N/c2ccc(O)c(O)c2)cc1	inactive: 22.4 µM
Cc1ccccc1NC(=O)C(=O)C(C#N)c1ccccc1C (centres undefined)	inactive: > 100 µM
Cc1cc(N(CCC#N)S(=O)(=O)c2ccccc2)ccc1/C=N/c1ccc(C(=O)O)cc1	inactive: > 40.2 µM
Fc1cc2nc3n(c2cc1F)C(c1c(Cl)cccc1Cl)SC3 (centres undefined)	inactive: 20.8 µM
O=C1C(O)=C(CCCCCCCCC2CCCCC2)C(=O)c2ccccc21 [MENOCTONE]	inactive: 15.7 µM
C[C@]12CC[C@@H]3c4cc(OCC(F)(F)F)c(O)cc4C(=O)C[C@H]3[C@@H]1CC[C@@H]2O	inactive: 37.5 µM
COc1ccc(C(OCC2OC(n3cc(C)c(=O)[nH]c3=O)CC2n2cc(Cn3cc(I)c(=O)[nH]c3=O)nn2)(c2ccccc2)c2ccccc2)cc1 (centres undefined)	inactive: > 100 µM
